Experimental data from publication PMC12136788.
The list shows a part of the results.

B1: 56101340_56103250_1555_CDS_ENSG00000126777_ENST00000438792|human|control|control (ssRNA)
RNA: GGGAGUUCUACAGUCCGACGAUCCUGUGCUGCCUCAUGUUCCGCUGUUCUCUUCCUGAUGUAGCUCUGAACUUCUUCCCACCUUCUCUCAGCUUCUUGUAGUUGAACCUUCAACUGAGUAGCUGCUUGCUCAGCAUUCUUCUUCAACAGAGGAUUGAGCAUCA
B2: 138255700_138258323_1902_CDS_ENSG00000122779_ENST00000415680|human|control|control (ssRNA)
RNA: GGGAGUUCUACAGUCCGACGAUCUGGCUGGCCAUGAUCUAUAUUAGUAUCUUUCCUCACAAUAUUGUCCAGCAUAAUAGUACUUGAACAGUCAAUAUCCGGAAGAGAGGGAAGAUUAUAAGACCCUCCCACUGGUGAGCUCAACAACAGAGGAUUGAGCAUCA
B3: chr2:44436386:44436387:+_ENSG00000138032_ENST00000378551|hu_hu|FALSE|FALSE (ssRNA)
RNA: GGGAGUUCUACAGUCCGACGAUCCUCUGAAUCUUUUUUCACCGCUUCAUCUGAGACCUUGGGAGCAUUUGAAAAGCAAACUAGUACAAUACUCAUGUUAUCUCGACUUCCCUUGUGUAAACAAGUGUCCACUACCCAAUUGCACAACAGAGGAUUGAGCAUCA
B4: chr1:60041781:60041782:+_ENSMUSG00000041040_ENSMUST00000036540|mus_hu|mus_mus_mus_hu_False|8_68 (ssRNA)
RNA: GGGAGUUCUACAGUCCGACGAUCAAGUUUACAAUAGUAAAGUAAAUGCAGUAGUGGCAAAUUUUCUUUACUUUAGUUUCACAAAAGAAAAUCUUUAUAACCCAGUCCUAGUCUUGGACAUAGUGAAUCUCCAUGGGUCUGACUCAACAGAGGAUUGAGCAUCA
B5: chr7:140404665:140404666:+_ENSG00000090266_ENST00000247866|hu_hu|hu_hu_hu_mus_False|78_78 (ssRNA)
RNA: GGGAGUUCUACAGUCCGACGAUCUGCUCCUACUCGUCCAGAGAGUUUACAGUGUCAGUCUUCAUCAUCAGGAGGGAUUCCCAGUUCUUCAUCUGUCCACUGUGAAGGAUCUGGAUAUGAAAAGUGACCCAGCACAGCAUCCGACAACAGAGGAUUGAGCAUCA
B6: 26878044_26878164_133_3pUTR_ENSG00000100099_ENST00000336873|human|control|control (ssRNA)
RNA: GGGAGUUCUACAGUCCGACGAUCCAGAACCACCUCUUCAAGCUCCUCUCCAGGAAAGCCAAAAGUGGGAGAUGCAUGCUAGAGCUGGUGUUCUAAAGAAAUUUCUAGCUUGUCUAGUUCAAACCCAUCCUGAAGACUCUUAUUCAACAGAGGAUUGAGCAUCA
B7: chr4:12084866:12084867:-_ENSMUSG00000028218_ENSMUST00000108285|mus_hu|motif|central (ssRNA)
RNA: GGGAGUUCUACAGUCCGACGAUCUAAAUCUUCAUCUUCAUCAAUGUUUUGUAUAUUCUGGUAGGCAGCAGUGUAGACCUCGGAAGCUUUGCCGUGAAAUAACAUUUCGAUUGUGAUAAAUUCAGAAAAUAUAGUCUUUAUAUCCAACAGAGGAUUGAGCAUCA
B8: chr8:42711381:42711382:-_ENSG00000120925_ENST00000527424|hu_mus|motif|central (ssRNA)
RNA: GGGAGUUCUACAGUCCGACGAUCCACUUCUCGAUACAUAAUGGAGAUGUAAAUAAGCAACAAAAAGAUAACAAAGAAAUCAUCGGGAAAGCCCAGAAUUCCAAACAAGGCUUCAGGUACAAAAUCUAGAGGUGAUAUUAAAUACAACAGAGGAUUGAGCAUCA
B9: chr13:113737515:113737516:+_ENSMUSG00000042426_ENSMUST00000038574|mus_mus|FALSE|FALSE (ssRNA)
RNA: GGGAGUUCUACAGUCCGACGAUCAGAAUUCCUUCCUCCAGGGCCACUCUCACAGCCCAGCUCCUCGCACACCCUGGUGGCUAAGCUCACCGCCGAGAUUCUUCGGGGCUGGGUGCAGACUAUGUUACACUUCCUGGCUCCACACAACAGAGGAUUGAGCAUCA
B10: chr7:44244176:44244177:+_ENSG00000106636_ENST00000223369|hu_mus|hu_hu_hu_mus_False|18_48 (ssRNA)
RNA: GGGAGUUCUACAGUCCGACGAUCACUGUCGCUCCGGACGUAGACAUGGCAAAGAUACUCUUGUUCUUUGACAGAAGCUCUGCUGCCUUUCGAUGAGCGUUCCACAAUCAGUUGACUCGUGAAGGUCAUGAAUUCCUGCACACUCAACAGAGGAUUGAGCAUCA
B11: chr4:140556289:140556290:+_ENSMUSG00000036622_ENSMUST00000037055|mus_mus|mus_mus_mus_hu_False|28_58 (ssRNA)
RNA: GGGAGUUCUACAGUCCGACGAUCGAUGGAGCUCACCAGGCCCCCUUUUGCCGUGCAGAACCCUGUGCGGGUCACCACUGCUAGCACGUGCGGUCCCACAUAGGCCCGGGCCUGCAGGAUGAGGGUCCCGCAGAAGAGUGUGUGCAACAGAGGAUUGAGCAUCA
B12: 128607413_128610288_2715_CDS_ENSG00000064419_ENST00000265388|human|control|control (ssRNA)
RNA: GGGAGUUCUACAGUCCGACGAUCUUUUAAGGAAUUUUCUAACCAUCGACAAAAAGUCGGUCUGUCAACCUGCAUGAUCUCCCAGAGCACUUCAGCCACAUCUGGUAGGGUAUAGGGGGGGAGGCAAAAGCAGCAGGUGUGCAGCAACAGAGGAUUGAGCAUCA
B13: chr8:93522421:93522422:+_ENSMUSG00000056608_ENSMUST00000048665|mus_mus|motif|central (ssRNA)
RNA: GGGAGUUCUACAGUCCGACGAUCAGAUUGGAUCAUUGCUUGCAGAUGAAAAUCAGAGGCAGAUGGAUUGUAUGUAUCUCGGAAUUCUCCAAGUAUUUUCUCCUCAGCACCUUUGAUAAGAUACGGAUGAUUGCAGCAUUUCCUCAACAGAGGAUUGAGCAUCA
B14: chr8:3496845:3496846:+_ENSMUSG00000047264_ENSMUST00000061508|mus_mus|FALSE|FALSE (ssRNA)
RNA: GGGAGUUCUACAGUCCGACGAUCAACAAGAUCGGGACUAGAGAUAGAUCCUGAGUGGGUCUGAAGGAUGGGAUUUUGGAGUGAACCCAGUACAGAAGUAGGGGCAGAACUUCGGGCAGAGCUGGCUCCAGAACUGAGGCCCAGCAACAGAGGAUUGAGCAUCA
B15: chrX:102931600:102931601:-_ENSG00000123562_ENST00000441076|hu_hu|FALSE|FALSE (ssRNA)
RNA: GGGAGUUCUACAGUCCGACGAUCGUCCUCAACAAGCCAUGGUUUUAAUUCUUCAGGAAUCUUCACUUUAACCUCCAUUCUAUUCUUAAACGCCUCCUCACUUUCAACAGUGGGGUCUGCCCGGGCCCUUUUCUUCCGAGGGGGCAACAGAGGAUUGAGCAUCA
B16: chr10:75834556:75834557:+_ENSG00000035403_ENST00000372755|perfect_dup|motif|central (ssRNA)
RNA: GGGAGUUCUACAGUCCGACGAUCAUUAAUUUCAGCACUCAUUUUUUCUACAGUAAAAUUGCGAUUUUUUAAAGCUUCCUCGGUGCCUUGGUUUUUUGAGUUUUUAGUUGUUACAAAAAUCUUCAUAGCUGAAAUGAGAACUGGCAACAGAGGAUUGAGCAUCA
B17: chr16:20502619:20502620:+_ENSMUSG00000003235_ENSMUST00000003320|mus_hu|FALSE|FALSE (ssRNA)
RNA: GGGAGUUCUACAGUCCGACGAUCGUCAGCACAGACAGCUGAGUACAUGUGUAGGUUGGAGACACGGGCACCAUAUUCCUUAGCUGUUACGUGCAUGUGGAUCUGGUUCCCUAGGAUCUCCUCAUUCACUAAGAGACCUCGCACCAACAGAGGAUUGAGCAUCA
B18: chr4:11413230:11413231:+_ENSMUSG00000040720_ENSMUST00000059914|mus_mus|FALSE|FALSE (ssRNA)
RNA: GGGAGUUCUACAGUCCGACGAUCAAACGAACCACAUCUAUAUGAGAACUUUGCUCAGCGCUCGGAUGUUUAAAAGUAUCUAAAAAUAGCAGCUCCAUAGACGAGUCCACCGCCAUGUCUGCCGCGGGCGGGGGACCGGGAGAUCAACAGAGGAUUGAGCAUCA
B19: chr16:21666878:21666879:+_ENSG00000197006_ENST00000396014|hu_hu|motif|central (ssRNA)
RNA: GGGAGUUCUACAGUCCGACGAUCUUUAAAAACAUUCCUUUACACACUACAAAGAAAUAAUUAGUAUUUUGGCUUUUUAAAUUCCGGCAUGAUAUUUAGAAUGGCGGUCCCCAAGGGUCCUCCCUUCACGUAAUUGUGAACACACAACAGAGGAUUGAGCAUCA
B20: chr2:75765252:75765253:+_ENSMUSG00000042410_ENSMUST00000047232|mus_hu|motif|central (ssRNA)
RNA: GGGAGUUCUACAGUCCGACGAUCAGUGAUUCAAAGUAAUCAUUUCACUUUAAUAUCCAGGUUUGAAUGUACAAAUGCUUGCGGAAUGUGAUUAAUGUUCUCAUUAUUUAAGAAACAGGAUAUUUCAAACUUUUGAUUAUGGUACAACAGAGGAUUGAGCAUCA
B21: chr4:17845017:17845018:+_ENSG00000109805_ENST00000514176|hu_mus|hu_hu_hu_mus_False|28_88 (ssRNA)
RNA: GGGAGUUCUACAGUCCGACGAUCGCUCUCUUAACUUGUAUCUUCAUGAGAAAUUGGUGCAAGGUUAAGUUUACUUUUCUGUAGCGCAGCUGUUUUGGCUCGUCUGGUAGUCUCAUCCUUCAUUUCUGAUGGUGGUUCAUGAUCCAACAGAGGAUUGAGCAUCA
B22: 31824166_31824376_896_CDS_ENSMUSG00000021916_ENSMUST00000168584|mouse|control|control (ssRNA)
RNA: GGGAGUUCUACAGUCCGACGAUCCUGAUAAAAUACGAUAAGCAGAGGAGGUGUGGUGAUGCUGCCUGCCAGAGUUCUGCUGUAUAAUCCCUCUUCUACAUUGAGCUUCAUCCAUUUUUCCAACUGGUUAGUUACAUUCUGUCUCAACAGAGGAUUGAGCAUCA

Each binder was assayed against T1, UNK ZnF1-3 (human, UniProt Q9C0B0 31-174) (assay: nsRBNS (natural sequence RNA bind-n-seq); RBNS binding buffer (assumed for nsRBNS): 25 mM Tris pH 7.5, 150 mM KCl, 3 mM MgCl2, 0.01% Triton X-100, 500 ug/ml BSA, 20 U/ml SUPERase-In, 4 C; UNK is unkempt and MSI1 is Musashi-1; names of the RNAs are library labels; protein concentration not given here; high values mean tight binding).
T1 sequence: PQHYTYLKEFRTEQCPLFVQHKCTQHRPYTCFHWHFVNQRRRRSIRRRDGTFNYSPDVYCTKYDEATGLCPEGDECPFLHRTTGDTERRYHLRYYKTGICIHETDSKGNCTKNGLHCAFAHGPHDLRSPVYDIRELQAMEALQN
B1 showed a binding signal of 0.344 enrichment R.
With B2 the binding signal was 1.14 enrichment R.
For B3, the binding signal was 0.972 enrichment R.
For B4, the binding signal was 0.685 enrichment R.
Binder B5 has a binding signal of 1.44 enrichment R.
Work on B6 yielded a binding signal of 1.04 enrichment R.
B7 was tested, and the binding signal was 1.21 enrichment R.
Work on B8 yielded a binding signal of 2.42 enrichment R.
Binder B9 has a binding signal of 0.634 enrichment R.
In the case of B10, the binding signal is reported as 0.571 enrichment R.
Binder B11 has a binding signal of 1.01 enrichment R.
Work on B12 yielded a binding signal of 1.12 enrichment R.
B13 gave a binding signal of 1.16 enrichment R.
Binder B14 has a binding signal of 1.41 enrichment R.
B15 showed a binding signal of 1.09 enrichment R.
B16 gave a binding signal of 0.958 enrichment R.
B17 was tested, and the binding signal was 0.68 enrichment R.
B18 was tested, and the binding signal was 1.28 enrichment R.
For B19, the binding signal was 0.822 enrichment R.
Binder B20 has a binding signal of 0.836 enrichment R.
With B21 the binding signal was 0.387 enrichment R.
In the case of B22, the binding signal is reported as 1.12 enrichment R.
